Assay results: US20060194762A1, “Composition comprising an epothilone and methods for producing a composition comprising an epothilone” (priority 2004, published 2006)

Legend:
[1] = Dissolving crystalline Epothilone* in aqueous hydroxypropyl-β-cyclodextrin solution under stirring; format: physicochemical; settings: 200 mg/ml 2-hydroxypropyl-β-cyclodextrin in water
Protocol: In the first production step hydroxypropyl-β-cyclodextrin was dissolved in water for injection. In the second production step the crystalline Epothilone* was added to said solution under stirring. […] The target concentration of ≧1 mg/mL was only achieved after 20 hours of stirring time. The resulting solution of Epothilone* and hydroxypropyl-β-cyclodextrin, was adjusted to pH 7.4 by adding diluted hydrochloric acid.

[2] = tested on: Patients with histologically confirmed advanced solid tumors

C=CC[C@H]1C(=O)C(C)(C)[C@@H](O)CC(=O)O[C@H](c2ccc3sc(C)nc3c2)C[C@@H]2O[C@]2(C)CCC[C@H](C)[C@@H]1O [Epothilone*, (1S,3S,7S,10R,11S,12S,16R)-7,11-dihydroxy-3-(2-methyl-benzothiazol-5-yl)-10-(prop-2-en-1-yl)-8,8,12,16-tetramethyl-4,17-dioxabicyclo[14.1.0]heptadecane-5,9-dione]
stirring time after which the target concentration of ≧1 mg/mL was achieved [1]: 20 h
state of dissolution under stirring ([1]; after 5 hours and after 10 hours of stirring): not completely been dissolved
anti-tumor activity in patients ([2]; breast cancer, NSCLC, cholangiocarcinoma, uveal melanoma and head and neck cancer): anti-tumor activity (including objective responses)
dose that can be administered every 3 weeks without severe toxicity ([2]; every 3 weeks, intravenous infusion): up to 29 mg/m^2
